# Laboratory results: the supplement of paper PMC3334620
# Whole data set: some 33,000 sequences, median “E-score (-0.5 to 0.5)” near -0.021, cut for the highest 2% near 0.32. The list shows a part of the results.
# Target: T1, Zap1 (UniProt P47043)
# T1 sequence: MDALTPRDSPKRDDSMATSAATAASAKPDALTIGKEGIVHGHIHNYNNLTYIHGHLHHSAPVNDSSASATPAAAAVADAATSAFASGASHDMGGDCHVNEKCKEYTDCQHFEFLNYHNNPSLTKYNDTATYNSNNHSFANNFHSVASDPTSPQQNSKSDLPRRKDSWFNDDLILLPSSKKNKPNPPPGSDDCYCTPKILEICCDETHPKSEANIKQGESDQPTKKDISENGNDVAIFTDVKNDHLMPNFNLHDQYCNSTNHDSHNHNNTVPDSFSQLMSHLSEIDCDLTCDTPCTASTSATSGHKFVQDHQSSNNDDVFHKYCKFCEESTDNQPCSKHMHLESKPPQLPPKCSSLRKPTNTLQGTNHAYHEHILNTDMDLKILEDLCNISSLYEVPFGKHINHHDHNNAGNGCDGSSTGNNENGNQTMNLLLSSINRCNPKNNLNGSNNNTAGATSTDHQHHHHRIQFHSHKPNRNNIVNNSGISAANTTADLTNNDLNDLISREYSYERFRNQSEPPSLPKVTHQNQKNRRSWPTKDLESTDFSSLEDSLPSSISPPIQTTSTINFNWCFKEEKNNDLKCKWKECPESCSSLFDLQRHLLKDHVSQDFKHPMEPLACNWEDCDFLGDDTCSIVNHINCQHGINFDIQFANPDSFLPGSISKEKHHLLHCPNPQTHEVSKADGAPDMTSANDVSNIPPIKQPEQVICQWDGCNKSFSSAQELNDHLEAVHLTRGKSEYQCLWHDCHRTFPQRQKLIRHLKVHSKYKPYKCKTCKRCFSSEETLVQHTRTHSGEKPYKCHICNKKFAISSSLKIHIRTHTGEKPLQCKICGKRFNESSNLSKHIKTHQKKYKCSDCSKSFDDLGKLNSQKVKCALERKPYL
# Experiment: PBM E-score (8-mer binding enrichment) (E-score (-0.5 to 0.5)); higher = stronger / more preferred TF binding; most listed sequences are background and not binding sites
# Settings: protein concentration: 200 nM; construct: GST-full length
# How it was run: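 Each ungapped eight-base word and its reverse complement, pooled, received an E-score from the Universal PBM Analysis Suite. Underlying scans, normalised with masliner, recorded fluorescent anti-GST bound to GST-tagged yeast transcription factors. These were applied at about 100-200 nM to universal all-10-mer Agilent arrays double-stranded by primer extension.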
row,Sequence,PBM E-score
1,GAGGAAGC,-0.301
2,ATGACAGC,-0.0168
3,CTCTACCC,0.181
4,CTTTAAGC,0.0702
5,CTCGATCC,-0.0316
6,ACGGGGCC,-0.0272
7,CGACCAAC,-0.0546
8,AATACTAG,0.264
9,GGGAACAC,-0.0487
10,AAGATCTC,-0.127
11,TCATCAGA,-0.0384
12,ACCCATGC,0.15
13,AGACACCG,-0.0664
14,GGTGGTAC,0.284
15,TATTTCGA,0.306
16,AACCAACG,0.104
17,CGGATTGC,-0.0159
18,CACTTCAC,-0.209
19,AGCGCAAC,-0.0903
20,CCATTCCG,-0.258
21,ATGTTCTG,-0.126
22,TCAAACAA,0.0626
23,CTTTGAAC,0.0221
24,AAGTCAAG,-0.231
25,CGGTCGAA,-0.076

row,Sequence,PBM E-score
1,GCATTAGC,-0.151
2,GGACCTCC,-0.134
3,ATTCTCCC,-0.16
4,CAGTCTGA,-0.0859
5,ACAGAGTA,-0.0251
6,ATCGCCTA,-0.325
7,GGGTACCA,0.4
8,AATAAGGC,-0.214
9,GAGAAATA,0.047
10,ATCCAGAA,0.159
11,ATTAAGAA,0.00585
12,CAGTCAGA,-0.0612
13,ACAGAGCT,-0.289
14,CCGGGGGC,-0.141
15,CCGTATAA,0.124
16,ACGTTTTA,0.0733
17,GACTATAC,-0.0051
18,TACCTTAA,0.296
19,ACAAATAG,0.0187
20,CACCCCAA,0.17
21,CCCGTTTA,-0.0317
22,CCCTGCCA,-0.00313
23,CCAGGCAG,-0.216
24,AAATCGTT,0.00625
25,GGTATTGA,0.17

row,Sequence,PBM E-score
1,GCCTTTAC,0.133
2,AATACACT,-0.0206
3,GGTCTATA,0.117
4,AGTGGGCC,-0.203
5,AGTGCTTA,-0.163
6,GTTGGGCA,-0.206
7,CTTGCCAC,-0.132
8,GTGTAAAA,0.097
9,ATTTTAAA,0.0698
10,CTCCTATC,-0.243
11,ATGCGGGA,0.0072
12,AAGTAGGT,-0.0992
13,ACTGCAAG,-0.213
14,CCAGAGTA,0.111
15,CTGCCAGC,-0.181
16,CACTTATA,-0.0243
17,TCTTAGAA,0.0577
18,GGAGAGTA,-0.323
19,ACCATCGC,0.103
20,ACTTTTGA,0.0191
21,ACAATACG,-0.0827
22,CGACTTCA,-0.148
23,ACACACTG,0.00988
24,AGGATTGG,-0.0532
25,CCCAACCG,-0.00374

row,Sequence,PBM E-score
1,CACAAGTA,0.0203
2,AGAGATCG,-0.173
3,AACCGCTC,0.136
4,AGAAGCAA,-0.026
5,GCCTCGCA,-0.162
6,AATCCACT,0.0218
7,CTAAGGCC,-0.0342
8,CATGTAAG,0.104
9,CCGAGGAA,-0.152
10,ACGTGTCT,-0.25
11,ACGGTAGA,0.0354
12,CGGATGAG,-0.0667
13,AGACAACG,-0.0324
14,AATTATAC,0.164
15,AAAAGAGA,-0.0407
16,CCTACACA,0.0989
17,ACCCATCG,0.098
18,TCAGCTGA,0.0575
19,ACCATCCG,0.139
20,ATGAGCAG,-0.202
21,ACTTTGCG,-0.00562
22,ATGCCGGG,-0.202
23,GTTGCTTA,-0.061
24,CGAGTTTA,-0.0372
25,AACTTTGC,-0.0653

row,Sequence,PBM E-score
1,AACATCCG,-0.126
2,GCGTGTTA,-0.0471
3,CCACTTTA,0.126
4,CCCTAACG,0.275
5,AAACCGAA,0.114
6,CCAAATTA,0.268
7,CACTAAGG,0.27
8,ACACATAT,0.0633
9,CTGAGGTA,0.275
10,GCGTGATA,-0.0875
11,CAATGACC,0.308
12,AAAGTGCC,-0.224
13,GCTATTGA,-0.0678
14,CATTGTTC,0.12
15,AATAGCCG,-0.0763
16,ACTTCATA,-0.0147
17,CACGGATA,0.127
18,ACAGTGCA,-0.117
19,ACGGGCCC,-0.202
20,CGGACGAA,0.0663
21,GGACTTGA,-0.152
22,ATTCTTGG,0.0194
23,ATTAAACC,0.0845
24,ATCAATGA,0.136
25,AGACCCCT,0.183

row,Sequence,PBM E-score
1,GGCCCACC,0.0454
2,CGATTCTC,-0.217
3,ACGTACTA,-0.0552
4,GAGGGGAA,-0.12
5,GACCCGCA,0.0858
6,CCTACTCC,-0.231
7,GCGCTCCA,-0.299
8,ATCCTCCG,-0.238
9,CGACACTC,-0.00732
10,CTAGTAAC,0.175
11,GACAATAA,0.0358
12,CAGCGCGG,0.141
13,ATCGTCGC,-0.203
14,CACCGGTG,-0.00604
15,CGACGGAG,-0.221
16,ATTGATGG,0.114
17,CCTACGAA,-0.00552
18,GAAGGTCA,0.232
19,CCGTTCAC,-0.109
20,ACCTCCTC,-0.0566
21,GAATCTCC,-0.052
22,CCCTTCTC,-0.214
23,CGCATCGC,-0.144
24,CCGAAAGA,0.0452
25,CTTGTGTA,0.0615

row,Sequence,PBM E-score
1,AATATAGG,0.201
2,TCGAACAA,0.251
3,CTGGCTCA,0.0741
4,CGTGGGAC,0.0556
5,GAAGGAGC,-0.314
6,ACATCTGG,0.0376
7,CTCCACGA,-0.068
8,ATGCCTTG,-0.106
9,CCAGGGCG,-0.178
10,GAATTGAC,-0.0853
11,AACAAGCC,-0.195
12,AAAGAGCG,-0.0344
13,GCCCCACA,0.0251
14,GCGGGTCC,-0.0967
15,CGTCCTTA,-0.133
16,GCTATTCC,-0.153
17,CTGATCCA,-0.0745
18,ACATCAAG,0.0177
19,ATCTATAG,0.0137
20,GAGTGCTA,-0.153
21,AACTCCGG,0.0218
22,CGCGCTCC,0.0055
